Hit rate of the full screen: of about 310,000 compounds, about 14,000 (4.5%) showed an effect of 50% or more. The effect is printed as a negative number. The list shows a part of the results.
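Note: peak tail current of the secondary pulse compared with the same well before compound.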

The target of this experiment is human ether-à-go-go-related gene (hERG) potassium channel (human, UniProt Q12809). Kind of experiment: primary screen, population patch clamp on CHO cells stably expressing hERG.
human ether-à-go-go-related gene (hERG) potassium channel, sequence (Q12809 whole entry, looked up): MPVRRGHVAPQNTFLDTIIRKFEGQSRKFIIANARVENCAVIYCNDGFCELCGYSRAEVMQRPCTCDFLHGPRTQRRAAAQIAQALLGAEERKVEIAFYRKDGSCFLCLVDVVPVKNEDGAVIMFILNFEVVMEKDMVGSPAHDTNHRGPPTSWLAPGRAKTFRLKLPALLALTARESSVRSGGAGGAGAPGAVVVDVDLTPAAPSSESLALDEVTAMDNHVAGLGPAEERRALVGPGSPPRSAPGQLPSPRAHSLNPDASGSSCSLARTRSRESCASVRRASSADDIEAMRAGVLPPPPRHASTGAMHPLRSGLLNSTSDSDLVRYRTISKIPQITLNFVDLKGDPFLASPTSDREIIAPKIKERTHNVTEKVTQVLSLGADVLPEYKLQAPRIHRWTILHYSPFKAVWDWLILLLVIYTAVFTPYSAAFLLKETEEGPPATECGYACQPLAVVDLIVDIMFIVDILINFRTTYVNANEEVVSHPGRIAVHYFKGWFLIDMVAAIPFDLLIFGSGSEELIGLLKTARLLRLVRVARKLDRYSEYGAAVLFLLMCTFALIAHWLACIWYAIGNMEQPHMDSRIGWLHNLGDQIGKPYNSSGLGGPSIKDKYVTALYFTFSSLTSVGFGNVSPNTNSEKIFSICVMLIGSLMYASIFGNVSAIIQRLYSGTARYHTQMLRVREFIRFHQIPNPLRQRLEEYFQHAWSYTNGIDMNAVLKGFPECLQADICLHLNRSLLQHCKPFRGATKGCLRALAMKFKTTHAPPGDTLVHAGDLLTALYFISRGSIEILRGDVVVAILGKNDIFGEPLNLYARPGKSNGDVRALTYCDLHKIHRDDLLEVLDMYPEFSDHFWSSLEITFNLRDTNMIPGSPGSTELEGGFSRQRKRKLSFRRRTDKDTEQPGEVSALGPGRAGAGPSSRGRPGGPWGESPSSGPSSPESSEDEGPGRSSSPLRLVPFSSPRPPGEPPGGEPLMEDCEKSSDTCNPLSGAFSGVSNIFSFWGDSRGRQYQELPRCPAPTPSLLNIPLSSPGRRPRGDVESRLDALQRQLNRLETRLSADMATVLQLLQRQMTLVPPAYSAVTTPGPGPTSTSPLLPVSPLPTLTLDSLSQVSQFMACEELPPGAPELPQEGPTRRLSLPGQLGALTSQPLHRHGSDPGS
On to `CC1CCN(CC(O)Cn2c3ccccc3c3ccccc32)CC1` (centres unmarked), for which the “hERG current change (%, negative = inhibition) at 10uM” value is reported as -54%.
As for `CC1(C)CC(=O)C(C(c2ccc(Br)cc2)C2C(=O)CC(C)(C)CC2=O)C(=O)C1`, the figure is 0.769%; as for `CC(=O)c1ccc(-c2ccc(C(=O)NC3CCCCCC3)o2)cc1`, 26%.
As for `O=C(COC(=O)Cc1ccccc1)Nc1cccnc1Cl`, the figure is 25.1%; as for `COc1cc(C(=S)N2CCOCC2)ccc1OC(=O)c1cccc(C)c1`, -3.3%; as for `Cc1ccc(C2C(=O)c3ccccc3C2=O)cc1`, 20.2%.
Take `COc1c2ccccc2c(OC)c2ccccc12`: the “hERG current change (%, negative = inhibition) at 10uM” value worked out at 12.9%.
Under `COCCn1c(SCC(=O)Nc2ccccc2C)nc2c(oc3ccccc32)c1=O` stands -7.62%; under `COC(=O)N1C(=O)[C@](c2ccccc2)(C2CCCCC2)N1C(=O)OC`, -2.97%.
`CC1CCCN(S(=O)(=O)c2cnc[nH]2)C1` (centres unmarked): the “hERG current change (%, negative = inhibition) at 10uM” value turned out to be 19.9%.
As for `Cc1ccc(/C=N/NC(=O)C(c2ccncc2)N2CCOCC2)cc1` (centres unmarked), the “hERG current change (%, negative = inhibition) at 10uM” value is recorded as 23.3%.
In the case of `Cc1cc(C(=O)NNC(=O)c2sccc2C)c(C)o1`, the “hERG current change (%, negative = inhibition) at 10uM” value came out at 7.27%.
In the case of `CC(=O)NC(=S)Nc1ccccc1C(=O)NC1CCCCC1`, the “hERG current change (%, negative = inhibition) at 10uM” value came to 3.33%.
As for `O=C1c2ccccc2S(=O)(=O)c2cc(C(=O)N3CCN(C(=O)c4ccccc4)CC3)ccc21`, the “hERG current change (%, negative = inhibition) at 10uM” value is recorded as -15.1%.
With `NC(=NC(=O)c1ccccc1)C1=C(O)CCC1=O`, the “hERG current change (%, negative = inhibition) at 10uM” value was 9.75%.
As to `CCn1c(-c2cccc(Br)c2)n[nH]c1=S`, the “hERG current change (%, negative = inhibition) at 10uM” value is recorded as 13.1%.
In the case of `Cc1ccc(NC(=O)CN(C)S(=O)(=O)c2cnc[nH]2)c(C)c1`, the “hERG current change (%, negative = inhibition) at 10uM” value is on record as 19.2%.
For the compound `N#CC1=C(S)N(c2ccccc2)C(c2ccc(-c3ccc(Cl)c(Cl)c3)o2)NC1=O` (centres unmarked), the “hERG current change (%, negative = inhibition) at 10uM” value was -2.64%.
In the case of `COc1ccc(OC)c(C(=O)CSc2nnc(-c3cccnc3)n2C)c1`, the “hERG current change (%, negative = inhibition) at 10uM” value is on record as -3.44%.
As to `CSc1c(SCc2ccccc2)cnn(-c2ccccc2)c1=O`, the “hERG current change (%, negative = inhibition) at 10uM” value was determined as 2.2%.
For the compound `Cc1ccc(C2CC(c3cccs3)=NN2C(=O)CSC2=NCCS2)cc1` (centres unmarked), the “hERG current change (%, negative = inhibition) at 10uM” value is given as -2.21%.
With `O=C(NNC(=O)c1cccs1)c1ccc(Cl)c(Cl)c1`, the “hERG current change (%, negative = inhibition) at 10uM” value is listed as 12.4%.
`Clc1ccc(CSc2nnc(/C=C/c3ccccc3)o2)cc1`: the “hERG current change (%, negative = inhibition) at 10uM” value is 1.88%.
Regarding `Cc1cccc(N2CCN(C(=O)COc3ccc4c(C)cc(=O)oc4c3C)CC2)c1C`, the “hERG current change (%, negative = inhibition) at 10uM” value came to 13.6%.
As for `Cn1c(NC2CCCCC2)c(N=O)c(=O)n(C)c1=O`, the “hERG current change (%, negative = inhibition) at 10uM” value is given as 20.7%.
For `CC(C)=CCCC(C)CN1CCC(n2nccc2NC(=O)c2ccccc2)CC1` (centres unmarked), the “hERG current change (%, negative = inhibition) at 10uM” value is recorded as -69.6%.
Consider `Cc1cc(NC(=O)Cn2ccsc2=N)c([N+](=O)[O-])cc1C.Cl`, for which the “hERG current change (%, negative = inhibition) at 10uM” value was 4.96%.
As for `Cc1nnc(-c2ccccc2)c(=O)n1/N=C/c1c(O)ccc2ccccc12`, the figure is -3.04%.
With `Cc1cc(Br)ccc1NC(=O)C1CCCO1` (centres unmarked), the “hERG current change (%, negative = inhibition) at 10uM” value is 5.26%.
Take `Cc1[nH]n(-c2ccccc2)c(=O)c1C=NCC1CCCO1` (centres unmarked): the “hERG current change (%, negative = inhibition) at 10uM” value was 13.8%.
With `Cc1ccc(NC(=O)N2CCN(C/C=C/c3ccccc3)CC2)cc1`, the “hERG current change (%, negative = inhibition) at 10uM” value is given as -44.6%.
In the case of `CNC(=O)ON(C(=O)NC)C1N(C)C(=S)SC1(C)C` (centres unmarked), the “hERG current change (%, negative = inhibition) at 10uM” value is -0.704%.
As for `O=C(c1ccco1)N(Cc1ccc(Cl)cc1)Cc1ccco1`, the “hERG current change (%, negative = inhibition) at 10uM” value is -41.2%.
In the case of `CC(C)C[C@H](NC(=O)c1[nH]cnc1C(=O)N[C@@H](C)c1ccccc1)C(=O)OCc1ccccc1`, the “hERG current change (%, negative = inhibition) at 10uM” value was 23.4%.
Take `CC1CCN(S(=O)(=O)c2ccc(NC(=O)CSc3nnnn3C)cc2)CC1`: the “hERG current change (%, negative = inhibition) at 10uM” value turned out to be 2.11%.
For the compound `O=C(Nc1nnc(Cc2ccccc2F)s1)c1ccccc1Cl`, the “hERG current change (%, negative = inhibition) at 10uM” value is recorded as 12.6%.
Under `CC(O)[C@H]1CNCCN1CCc1cccc2ccccc12` (some centres unmarked) stands 0.0573%; under `CCCCOc1ccc(C(=O)NCCOc2cccc(OC)c2)cc1`, 11.2%.
As for `CN(C)C(=O)COc1ccc2c(-c3ccccc3)cc(=O)oc2c1`, the figure is -0.783%.
On to `Cc1cc(C)nc(SCC(=O)c2cc3ccccc3oc2=O)n1`, for which the “hERG current change (%, negative = inhibition) at 10uM” value was -4.4%.
Consider `CCOc1cc2c(cc1OCC)-n1cccc1C(c1ccc(OC)c(OC)c1)NC2.Cl` (centres unmarked), for which the “hERG current change (%, negative = inhibition) at 10uM” value is -30.2%.
For `COc1ccc(CN2CCc3ccc(NC(=O)c4ccncc4)cc3C2)c(F)c1`, the “hERG current change (%, negative = inhibition) at 10uM” value is -14.5%.
Take `CC1(C)Cc2cccc(OCC(N)=O)c2O1`: the “hERG current change (%, negative = inhibition) at 10uM” value turned out to be 16.7%.
Take `C=CCN1C(=O)/C(=C/C(=O)OC)S/C1=N\NC(=O)c1ccccc1`: the “hERG current change (%, negative = inhibition) at 10uM” value was 4.18%.
Regarding `CCc1n[nH]c(=S)n1/N=C/c1cccc2ccccc12`, the “hERG current change (%, negative = inhibition) at 10uM” value turned out to be 14.4%.
Consider `CCc1ccc(NC(=O)N2CCc3ccccc3C2)cc1`, for which the “hERG current change (%, negative = inhibition) at 10uM” value is reported as -1.47%.
Under `CC(=O)Nc1cccc(NC(=O)CSc2nc(=O)n3cccc(C)c3n2)c1` stands 14.9%.
Consider `CC(=O)Nc1nc2ccccc2n1CCOc1ccccc1Cl`, for which the “hERG current change (%, negative = inhibition) at 10uM” value is 13.7%.
For the compound `Cc1cc(C(=O)Nc2nc3c(s2)CCCC3)cs1`, the “hERG current change (%, negative = inhibition) at 10uM” value is listed as 1.75%.
`Cc1ccc(C2(CCNCc3ccc(N(C)C)cc3)CCOC(C(C)C)C2)cc1` (centres unmarked): the “hERG current change (%, negative = inhibition) at 10uM” value was -64.1%.
With `Cn1cnc(S(=O)(=O)N2CCN(C(c3ccc(F)cc3)c3ccc(F)cc3)CC2)c1`, the “hERG current change (%, negative = inhibition) at 10uM” value is listed as -7.05%.
As for `O=C(OC1CCOC1=O)c1ccc(S(=O)(=O)N2CCCCCC2)cc1` (centres unmarked), the “hERG current change (%, negative = inhibition) at 10uM” value was 8.9%.
Take `O=C(Nc1nnc(SCc2ccc(F)cc2)s1)c1cnccn1`: the “hERG current change (%, negative = inhibition) at 10uM” value is reported as -3.13%.
As to `CCc1ccc(OCc2nnc(SCCN3CCOCC3)n2C)cc1.O=C(O)C(=O)O`, the “hERG current change (%, negative = inhibition) at 10uM” value was determined as 0.796%.
For `Cn1cnnc1SCC(=O)c1ccc2c(c1)OCO2`, the “hERG current change (%, negative = inhibition) at 10uM” value is on record as -16.5%.
On to `COc1ccc(C(C#N)(CC(=O)O)c2cnccn2)cc1OC` (centres unmarked), for which the “hERG current change (%, negative = inhibition) at 10uM” value came out at 9.24%.
As for `N#Cc1c(/N=C/c2c(O)n(Cc3ccco3)c(=O)[nH]c2=O)sc2c1CCCC2`, the “hERG current change (%, negative = inhibition) at 10uM” value was -12.9%.
Under `Cc1cc(C)c2[nH]c(=S)cc(C)c2c1` stands 15.9%; under `CN1CCN(C(=S)NC(=O)/C=C/c2ccccc2)CC1`, -17.3%.

Values taken from publication PMC4336329 (PLoS ONE, 2015).
